Experimental data: PubChem BioAssay AID743279 (National Center for Advancing Translational Sciences (NCATS), 2014)
Screen size: about 360,000 compounds; about 17,000 (4.7%) were called active. This list was built around the results that the source calls inconclusive (neither active nor inactive); the mix of calls is not that of the screen. Cut-off read from the data, not from the text of the source: active = activity change below about -50%; inconclusive = mostly about -30% to -49%; inactive = weaker than that. The source holds several records for some structures; these can differ, active in one and inactive in another.

Test: qHTS for Inhibitors of Inflammasome Signaling: IL-1-beta AlphaLISA Primary Screen
Settings: THP-1 LPS/ATP IL-1B secretion, 16 h; at 57.5 µM, hits give low values
From the text: Inflammasomes are a set of intracellular multi-protein complexes that enable autocatalytic activation of inflammatory caspases and drive the innate immune response to counter harmful agents. […] A qHTS assay, based on AlphaLISA technology, was developed to screen the Molecular Libraries Small Molecule Repository (MLSMR) to look for novel inflammasome inhibitors. The assay detects IL-1B using AlphaLISA anti-IL-1B acceptor and donor beads. A decreased emission signal, indicating reduced IL-1B secretion, is the desired outcome for this assay. NIH Chemical Genomics Center [NCGC] NIH Molecular Libraries Probe Centers Network [MLPCN] MLPCN Grant: MH095513 Assay Provider: Shyam Biswal Ph.D., Johns Hopkins University Immunity. 2012 Jul 27;37(1):85-95. PMID: 22819042 [2] Curr Pharm Des. 2012;18(16):2320-8. PMID: 22390695
Three microliters containing 3000 THP-1 cells were dispensed into the wells of solid, white, tissue culture treated Greiner 1,536-well plates. Library compounds and positive control, Glyburide, were pin-transferred (23 nL) by a Kalypsys pin-tool equipped with a 1,536-pin array, resulting in final compound concentration ranges of 2.5 nM to 57.5 uM. After 1 hr of cell culture incubation (37 °C, 5% CO2), 1 microL of 1 microg/mL lipopolysaccharide (250 ng/mL, final) and 5 mM ATP (1.25 mM, final) were added to stimulate the cells. After 16 hr of cell culture incubation with the compounds, 1.5 uL of anti-IL-1B acceptor beads (6 ug/mL, final) and biotinylated antibody (0.6 nM, final) were added to the plate, followed by a 1 hr incubation at ambient temperature. To detect the secreted IL-1B, 1.5 uL of AlphaLISA SA-Donor beads (24 ug/mL, final) were added, followed by 30 min of incubation in the dark at ambient temperature. The AlphaLISA signal was read by a PerkinElmer EnVision plate reader with an ultrasensitive luminescence detector and 1536 Plate HTS AlphaScreen aperture (excitation of 680nm and emission of 615nm).
% is set by controls: 0 for no effect and ±100 for the full control effect.

SMILES	activity change
CCCCCCCCNS(=O)(=O)CCNCCc1ccccc1	inconclusive: -43%
C=CCC[C@@H](Cc1ccc(F)cc1)C(=O)OC[C@@H]1CCCN1C(=O)[C@H](CC=C)CC(=O)N[C@H](CO)Cc1ccccc1	inconclusive: -46.5%
CCN(CCO)c1nc(NCc2ccccc2)c2cnn(C)c2n1	inactive: 2.38%
CC(C)C[C@H]1CNC(=S)N1C[C@H]1CCCN1C[C@H](Cc1ccc(O)cc1)N1C[C@H](CC(C)C)N(CC2CCCCCC2)C1=S	inconclusive: -32.4%
COc1ccc(N(CC(=O)Nc2cc(OC)ccc2OC)S(=O)(=O)c2c(C)nn(C)c2C)cc1	inconclusive: -33.8%
CCn1cc(/C=N/NC(=O)c2cc3c(ccc4ccccc43)o2)c2ccccc21	inconclusive: -32%
c1ccc(-c2onc3cc4c(cc23)OCCO4)cc1	inconclusive: -42.3%
C=CCC[C@H](Cc1ccc(F)cc1)C(=O)OC[C@@H](Cc1c[nH]c2ccccc12)NC(=O)[C@H](CC=C)CC(=O)N(CCO)Cc1ccccc1	inconclusive: -31.9%
CCc1cc(=O)oc2c3c(cc(OCC(=O)Nc4cccnc4)c12)OC(C)(C)CC3	inconclusive: -49.9%
CN(C)CC1CCCCC1C1(O)c2ccccc2CSc2sccc21 (stereo unspecified)	inconclusive: -36.4%
Cc1ccccc1/C=N/N1CCN(c2ccccc2)CC1	inactive: -6.42%
FC(F)(F)c1ccc2c(c1)N1CCCC1CN2 (stereo unspecified)	inconclusive: -43.7%
CC(C)c1ccc(CC(=O)N2CCC2(C)C(=O)NCC(C)(C)C)cc1 (stereo unspecified)	active: -74.5%
CC1=C(C(=O)Nc2ccccc2)C(c2ccc(C)o2)n2c(s/c(=C/c3ccccc3)c2=O)=N1 (stereo unspecified)	inconclusive: -41.3%
CC(C)=CCC/C(C)=C/CNC(=O)C[C@H]1C[C@H](C(=O)N2CCOCC2)[C@@]2(CCC3CCCC3)c3[nH]c4cc(CCC(=O)N(C)C)ccc4c3CCN2C1=O	inconclusive: -38.9%
CC(C)n1nccc1N(Cc1ccc(Br)cc1)S(=O)(=O)c1ccccc1	inconclusive: -32.8%
Cc1cc(NC(=O)c2ccc(Cl)cc2Cl)no1	inconclusive: -30.9%
CN1CCN(c2ccc(S(=O)(=O)N3CCCCC3)cc2NC(=O)/C=C/c2ccc(Cl)c([N+](=O)[O-])c2)CC1	active: -80.7%
O=c1[nH]c(-c2cccnc2)nc2sc(-c3ccccc3)cc12	inactive: 16.3%
N#CC1=C(c2ccc(-c3ccccc3)cc2)COC1=O	inconclusive: -38.4%
CCN1CCN(CCCNC(=O)CCC(=O)N2CCOc3ccc(Cl)cc32)CC1	inactive: -15.4%

SMILES	activity change
COc1cccc(N2CCN(Cc3nc4ccccc4c(=O)[nH]3)CC2)c1	inactive: 9.38%
Cc1ccc2c(c1)S(=O)(=O)c1ccc3ccccc3c1N2	inactive: 8.92%
CCOc1ccc(Nc2oc(-c3cccs3)nc2C#N)cc1	inconclusive: -31.9%
CCC(C)Sc1cccc(-c2nc3ccc(C)cn3c2NC2CCCCC2)c1 (stereo unspecified)	active: -77.5%
CCC(=O)Nc1cccc(C(=O)/C=C/c2ccc(F)cc2)c1	active: -80.1%
CC(=O)c1sc2nc(-c3ccco3)ccc2c1N	inconclusive: -43.8%
O=C(/C=C/c1cccs1)NC(=S)Nc1ccc(C(=O)O)cc1	inconclusive: -44.3%
Cc1ccc(OCC(=O)Nc2ccc(C)c(S(=O)(=O)N3CCCCCC3)c2)c([N+](=O)[O-])n1	inconclusive: -32%
CC1(C)Cc2c(C#N)c(NCCc3ccccc3)nc(-c3ccco3)c2CO1	inconclusive: -48.3%
O=C(NCC(c1ccco1)N1CCCCC1)c1cccc(NS(=O)(=O)c2ccc(Br)cc2)c1 (stereo unspecified)	inconclusive: -38.5%
O=C(Oc1ccccc1C(=O)Nc1ccccc1)c1ccccc1Br	inconclusive: -30.7%
COc1ccc(OCC(=O)Nc2ccc(NC(=O)c3ccccc3Cl)c(OC)c2)cc1	inconclusive: -40.8%
CC(=O)c1cc(C(=O)c2ccccc2)sc1Nc1ccccc1	active: -62.4%
CCCCn1c(=O)[nH]c(=O)c2c1nc(-c1ccc(OC)c(Br)c1)n2CC(C)C	inconclusive: -41.8%
CC(C)c1ccc2c(c1)CCC1C(C)(CN)CCCC21C (stereo unspecified)	active: -98.8%
CN(CCOCCOc1ccc(Cl)cc1Br)Cc1ccccc1	active: -79.8%
COc1ccc(C)cc1S(=O)(=O)N(CC(=O)NC1CCCC1)c1ccc(F)cc1	inconclusive: -31.6%
COC(=O)C1=C(C(=O)OC)[C@@H]2N(C)c3ccc(OC)cc3[C@@]23C[C@@H](C(=O)OC)N(S(=O)(=O)c2ccc(OC)cc2)C3=N1	inactive: -1.88%
Cc1c(C(=O)Nc2ccc(F)c(F)c2)oc2ccc(S(=O)(=O)N3CCCCC3)cc12	inconclusive: -30.2%
O=C(Nc1nc(-c2nc3ccccc3s2)cs1)c1ccc(S(=O)(=O)N2CCOCC2)cc1	inconclusive: -48.5%
